Here are results for 153 variants from a collection of fitness landscapes (doi:10.1126/science.1257360).

The other results are listed elsewhere or left out. Some results are limits rather than exact numbers.

The chains are these.
B1: PhoQ; a variant is named by its letters at X, in order, P23837 (parent)
chain: MKKLLRLFFPLSLRVRFLLATAAVVLVLSLAYGMVALIGYSVSFDKTTFRLLRGESNLFYTLAKWENNKLHVELPENIDKQSPTMTLIYDENGQLLWAQRDVPWLMKMIQPDWLKSNGFHEIEADVNDTSLLLSGDHSIQQQLQEVREDDDDAEMTHSVAVNVYPATSRMPKLTIVVVDTIPVELKSSYMVWSWFIYVLSANLLLVIPLLWVAAWWSLRPIEALAKEVRELEEHNRELLNPATTRELTSLVRNLNRLLKSERERYDKYRTTLTDLTHSLKTPLXXLQXXLRSLRSEKMSVSDAEPVMLEQISRISQQIGYYLHRASMRGGTLLSRELHPVAPLLDNLTSALNKVYQRKGVNISLDISPEISFVGEQNDFVEVMGNVLDNACKYCLEFVEISARQTDEHLYIVVEDDGPGIPLSKREVIFDRGQRVDTLRPGQGVGLAVAREITEQYEGKIVAGESMLGGARMEVIFGRQHSAPKDE

The variants in the experiment derive from B1. Briefly: enrichment ratio after two sorts for PhoP signalling (ratio (wild type AVST 3.29)); higher = more functional. The following applies: with PhoP (E. coli).
For the variant WHMS, the enrichment ratio is not above 0.25.

GFCK: the enrichment ratio was not above 0.25. With EGAN, the enrichment ratio is not above 0.25. As for SYGI, the enrichment ratio is not above 0.25. Regarding IHMH, the enrichment ratio is not above 0.25. WDTR: the enrichment ratio is not above 0.25. Regarding MGSG, the enrichment ratio was found to be 1.14. MLRH: the enrichment ratio is not above 0.25. With TMRS, the enrichment ratio was not above 0.25. With FLYD, the enrichment ratio was not above 0.25. As for IMRA, the enrichment ratio is not above 0.25. For KKFC, the enrichment ratio was not above 0.25. Take QEAC: the enrichment ratio was determined as 16. On to HTLR, for which the enrichment ratio is not above 0.25. Take GWTN: the enrichment ratio was not above 0.25. Consider HLKL, for which the enrichment ratio was not above 0.25. With IIMK, the enrichment ratio is not above 0.25. With TIPA, the enrichment ratio was not above 0.25. The value for LIWQ was not above 0.25; that for YNHE was not above 0.25; that for VQVQ was not above 0.25.

As for QFNV, the enrichment ratio is not above 0.25. LHTR: the enrichment ratio is not above 0.25. As for THEN, the enrichment ratio was not above 0.25. Turning to QPCS, the enrichment ratio is not above 0.25.

KGPS: the enrichment ratio was not above 0.25.

On to LLHW, for which the enrichment ratio is not above 0.25. AERK: the enrichment ratio was not above 0.25. As for NKDA, the enrichment ratio is not above 0.25. The value for FQNT was not above 0.25. As for SDMF, the enrichment ratio is not above 0.25. With KLRE, the enrichment ratio is not above 0.25. Under TGQT stands 6.64; under KYMF, not above 0.25; under YMAG, not above 0.25.

Consider NNRG, for which the enrichment ratio is not above 0.25. As to GWLF, the enrichment ratio is not above 0.25.

For SYTA, the enrichment ratio came to 0.351.

In the case of ADCN, the enrichment ratio was found to be 11.5. Take RERH: the enrichment ratio was not above 0.25. The value for RRCY was not above 0.25; that for DSDH was not above 0.25.

Turning to TIAE, the enrichment ratio was not above 0.25. In the case of PDRP, the enrichment ratio was not above 0.25. Take QELE: the enrichment ratio is not above 0.25. Take NQNW: the enrichment ratio was not above 0.25. As for EYKI, the enrichment ratio was not above 0.25.

Turning to NEKT, the enrichment ratio is not above 0.25. Regarding VKQH, the enrichment ratio was not above 0.25. On to DGMC, for which the enrichment ratio is not above 0.25. As for SHTF, the enrichment ratio was not above 0.25. EHGW: the enrichment ratio was not above 0.25. For the variant HRNM, the enrichment ratio is not above 0.25. Consider ELLA, for which the enrichment ratio is not above 0.25.

On to QAGV, for which the enrichment ratio amounted to 6.5. Turning to RQAE, the enrichment ratio was not above 0.25. Regarding YYKS, the enrichment ratio was not above 0.25. As to VPLS, the enrichment ratio is not above 0.25.

On to YCAY, for which the enrichment ratio was not above 0.25. Regarding ATFE, the enrichment ratio was not above 0.25. As for DGLN, the enrichment ratio was not above 0.25. The value for PLWG was not above 0.25; that for PSEH was not above 0.25. PPYR: the enrichment ratio was not above 0.25.

Turning to YAMM, the enrichment ratio was found to be 3.27. Consider LAVS, for which the enrichment ratio is not above 0.25.

On to SLHD, for which the enrichment ratio was not above 0.25.

Turning to EIQA, the enrichment ratio is not above 0.25.

Turning to HGID, the enrichment ratio is not above 0.25. As for DHMG, the enrichment ratio was not above 0.25. Regarding PCLW, the enrichment ratio is not above 0.25. Regarding AGLH, the enrichment ratio was 11. As for RYKD, the enrichment ratio is not above 0.25. Turning to DSEG, the enrichment ratio is not above 0.25. As to FRFA, the enrichment ratio is not above 0.25. With EQYH, the enrichment ratio is not above 0.25. Take WPIH: the enrichment ratio was not above 0.25. As for VDCR, the enrichment ratio was not above 0.25. As for INHK, the enrichment ratio is not above 0.25. On to RMWV, for which the enrichment ratio was not above 0.25.

Take YSNS: the enrichment ratio was not above 0.25. The value for SCYC was 0.29; that for KHCA was not above 0.25. Regarding QLIQ, the enrichment ratio was not above 0.25. The value for VAQL was not above 0.25; that for ASAY was 4.58; that for VRPC was not above 0.25.

As to VDLW, the enrichment ratio was not above 0.25. As to NIVN, the enrichment ratio was not above 0.25. Turning to ENCP, the enrichment ratio was not above 0.25. The value for LIGA was not above 0.25; that for HSAM was 5.5; that for WHFG was not above 0.25. The value for WMFQ was not above 0.25.

Consider GDAF, for which the enrichment ratio was not above 0.25.

With AFMI, the enrichment ratio is not above 0.25. The value for DCTL was not above 0.25; that for NNSL was not above 0.25. For the variant HKYT, the enrichment ratio was not above 0.25.

In the case of HWNP, the enrichment ratio is not above 0.25. For the variant WRKP, the enrichment ratio was not above 0.25. In the case of RQDN, the enrichment ratio was not above 0.25. The value for HACS was not above 0.25; that for TAKK was not above 0.25; that for MLDL was not above 0.25. As to NTEL, the enrichment ratio is not above 0.25.

Regarding HRYD, the enrichment ratio is not above 0.25. Under SLAA stands 1.03; under HMRI, not above 0.25; under HMTI, 0.351. Consider ITSV, for which the enrichment ratio is not above 0.25. In the case of KHIF, the enrichment ratio was not above 0.25. As to YSRW, the enrichment ratio is not above 0.25. The value for QMTD was not above 0.25. In the case of FKGH, the enrichment ratio is not above 0.25. As for KTQR, the enrichment ratio was not above 0.25. For MHVI, the enrichment ratio is not above 0.25. With TRRP, the enrichment ratio is not above 0.25. Take TTQH: the enrichment ratio amounted to 7.73. LNIY: the enrichment ratio is not above 0.25. As for YSWM, the enrichment ratio is not above 0.25. The value for ALYM was not above 0.25. As for MLRD, the enrichment ratio was not above 0.25. Under IFIL stands not above 0.25. Turning to PSVI, the enrichment ratio was not above 0.25. Turning to KVMP, the enrichment ratio is not above 0.25. As to QNCF, the enrichment ratio was not above 0.25. GWLK: the enrichment ratio was not above 0.25. On to AKAE, for which the enrichment ratio was not above 0.25. LSAA: the enrichment ratio was not above 0.25. The value for WEAA was not above 0.25; that for ALML was 3.93; that for DVNP was not above 0.25. As to VWGK, the enrichment ratio is not above 0.25. On to RNKH, for which the enrichment ratio was not above 0.25. With GNKH, the enrichment ratio is not above 0.25. Under CTFY stands not above 0.25; under AFGK, not above 0.25. As for PECP, the enrichment ratio was not above 0.25.

Regarding IMTP, the enrichment ratio was not above 0.25. Take IASA: the enrichment ratio is not above 0.25.

As for YCVC, the enrichment ratio is not above 0.25. Under HTYH stands not above 0.25; under FKSS, not above 0.25.

For TNWM, the enrichment ratio was not above 0.25. On to MRPR, for which the enrichment ratio was not above 0.25.

Consider KMHA, for which the enrichment ratio was not above 0.25. Consider PMYE, for which the enrichment ratio was not above 0.25. Under RMVV stands not above 0.25. Take HCHY: the enrichment ratio was not above 0.25. MHKF: the enrichment ratio was not above 0.25. Take IRGK: the enrichment ratio is not above 0.25. With PAQG, the enrichment ratio is not above 0.25.
